Data reported in PubChem BioAssay.
The shares of active, inactive and inconclusive entries below differ from those in the screen. Activity calls are given as the source filed them.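 The calls were made as follows: active = fitted half-maximal concentration for viability loss no higher than twice the top valid dose, in every repeat run; inconclusive = repeat runs disagree, flat partial loss, or poor curve fit; inactive = the rest.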

Test: IOSE-T80 viability loss, PAX8-independent line – cell-based, cherry-pick, selectivity assay for PAX8 inhibitor project, dose response (AID 687032);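 also: cells exposed to compound for 96 h before reading; 0% = neutral control wells and -100% = 2 µM mitoxantrone kill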
Conditions: CellTiterGlo ATP luminescence, 96 h; at 35 µM (top of the series) unless noted

| Compound | activity change, negative = viability loss |
| --- | --- |
| COC(=O)[C@@]12C[C@@H](CC(=O)N3CCN(C(=O)c4ccco4)CC3)C(=O)N(Cc3ccccc3)C1=CCC(C)(C)C2 | inconclusive: -1.62% |
| CC(C)Nc1ccc(Nc2ccnc3cc4ccccc4cc23)cc1 | inconclusive: 8.71% |
| CN1CCN(c2ccc(S(=O)(=O)N3CCCCC3)cc2NC(=O)/C=C/c2ccc(Cl)c([N+](=O)[O-])c2)CC1 | inconclusive: 12.9% |
| CCCCCc1c(-c2ccccc2OC)ncn1CCc1ccccc1OC | inconclusive: -9.42% |
| Cc1ccc(S(=O)(=O)Nc2ccc3c(c2)C(=O)N([C@@H](C)CO)C[C@H](C)[C@H](CN(C)Cc2ccc(C(F)(F)F)cc2)OCCCC[C@@H](C)O3)cc1 | inactive: 9.12% |
| CC(C)C(=O)N1CCN(c2ccc(NC(=O)c3ccc([N+](=O)[O-])o3)cc2Cl)CC1 | inconclusive: 5.95% |
| Cn1c(=O)c([N+](=O)[O-])c(Cl)c2ccccc21 | inconclusive: 22.1% |
| O=C(Nc1ccc(F)cc1)N1CCCCN2[C@@H](CO)[C@@H](c3ccc(C#Cc4ccccc4)cc3)[C@@H]2C1 | inconclusive: 7.24% |
| COC(=O)C12OCC34C(CC5C(C)=C(O)C(=O)CC5(C)C3C(O)C1O)OC(=O)C(OC(=O)C=C(C)C)C24 (centres undefined) | inactive: 5.14% |
| COc1ccc(S(=O)(=O)Nc2ccc3c(c2)C(=O)N([C@H](C)CO)C[C@H](C)[C@@H](CN(C)S(=O)(=O)c2ccc(C)cc2)OCCCC[C@H](C)O3)cc1 | inactive: 10.6% |
| Cc1ccc(S(=O)(=O)N(C)C[C@@H]2OCCCC[C@@H](C)Oc3ccc(NS(=O)(=O)c4ccc(Cl)cc4)cc3C(=O)N([C@H](C)CO)C[C@H]2C)cc1 | inactive: 8.96% |
| COc1cccc(CC(=O)Nc2nc3c(s2)C(=O)CC(C)(C)C3)c1 | inconclusive: 3.17% |
| O=C(/C=C/c1ccc(Cl)cc1Cl)N1CCN(c2ccccc2[N+](=O)[O-])CC1 | inconclusive: 0.829% |
| Cn1nnnc1Sc1ncnc2scc(-c3ccsc3)c12 | inconclusive: 13.4% |
| OCCCNc1nccc(-c2cc(Nc3cccc(Cl)c3)ncn2)n1 | inconclusive: 2.92% |
| Cc1ccc(NC(=O)c2ccc([N+](=O)[O-])s2)cc1S(=O)(=O)N1CCOCC1 | inactive: 6.27% |
| CCc1ccc(CNC(=O)C2CCCN(c3nnc(C)c4c(C)n(-c5ccccc5)nc34)C2)cc1 (centres undefined) | inactive: 17.9% |
| O[C@@H]1[C@@H](O)C=C2CCN3Cc4cc5c(cc4[C@H]1C23)OCO5 (some centres undefined) | inconclusive: 12.6% |
| COc1ccc([N+](=O)[O-])c(S(=O)(=O)c2ccccc2)n1 | inconclusive: 14.5% |
| CN=c1scc(-c2cccs2)n1/N=C/c1ccccc1O | inconclusive: 11.9% |

| Compound | activity change, negative = viability loss |
| --- | --- |
| C[C@@H]1CN([C@@H](C)CO)C(=O)Cc2cc(NC(=O)Nc3ccc(C(F)(F)F)cc3)ccc2O[C@H]1CN(C)Cc1ccc(Cl)c(Cl)c1 | inactive: 18.9% |
| c1cc2c(cc1C1=NNC(=NC3CC3)SC1)OCCO2 | inconclusive: -0.704% |
| O=C(NCc1cc(C(F)(F)F)ccc1Cl)c1cccc2c1C(=O)c1ccc(N3CCC(N4CCCCC4)CC3)cc1S2(=O)=O | inconclusive: 1.16% |
| CCSc1cc(N2CCOCC2)nc(-c2ccc(Cl)cc2)n1 | inconclusive: 6.22% |
| Cn1nnnc1Sc1ncnc2scc(-c3ccc(Br)cc3)c12 | inconclusive: 9.62% |
| COc1ccc(S(=O)(=O)Nc2ccc3c(c2)CC(=O)N([C@H](C)CO)C[C@H](C)[C@@H](CN(C)Cc2ccc(Cl)c(Cl)c2)O3)cc1 | inconclusive: 9.91% |
| COc1cc(C2C3=C(COC3=O)OC(C)(C)Oc3cc4c(cc32)OCO4)cc(OC)c1OC (centres undefined) | inconclusive: 0.032% |
| CCOc1ccc(NC(=O)Nc2cccc(C(=O)O)c2)cc1 | inconclusive: 4.15% |
| Cc1cc(C)n(-c2nc(NCCN(C)C)c3c4c(sc3n2)CCCC4)n1 | inconclusive: 3.78% |
| Cc1cccc(N(Cc2cc(=O)[nH]c3ccccc23)C(=O)CCl)c1 | inconclusive: -75.2% |
| Cc1ccc(S(=O)(=O)Nc2ccc3c(c2)C(=O)N([C@H](C)CO)C[C@H](C)[C@@H](CN(C)S(=O)(=O)c2ccc(F)cc2)OCCCC[C@H](C)O3)cc1 | inactive: 40.6% |
| Cc1cc(C)c2sc(NNC(=O)c3ccc(S(=O)(=O)N4CCc5ccccc5C4)cc3)nc2c1 | inconclusive: 16.9% |
| O=C1/C(=C/c2ccccc2)SC(=S)N1CC(=O)N1CCCCC1c1cccnc1 (centres undefined) | inconclusive: 15.7% |
| N#Cc1ccc(NC(=O)COC(=O)C2CCC2)cc1 | inactive: 4.28% |
| COc1cccc(/C=N/Nc2nc(Nc3ccc([N+](=O)[O-])cc3)nc(N3CCCC3)n2)c1O | inconclusive: -4.84% |
| CCCC#Cc1ccc([C@@H]2[C@H](CO)N3CCCCN(S(=O)(=O)Cc4ccccc4)C[C@@H]23)cc1 | inactive: 8% |
| CCc1cc(-c2n[nH]c(C)c2-c2nc3ccccc3n2C)c(O)cc1O | inconclusive: -12.3% |
| O=C(NCc1ccc(F)cc1)C1(c2cccs2)CCOCC1 | inconclusive: 9.31% |
| C[C@H]1CN([C@@H](C)CO)C(=O)Cc2cc(NC(=O)Nc3ccc(F)cc3)ccc2O[C@H]1CN(C)Cc1ccc(Cl)c(Cl)c1 | inactive: 12.2% |
